According to PubChem BioAssay AID485344 (National Center for Advancing Translational Sciences (NCATS), 2010):
In all, about 340,000 compounds went through this assay and about 6,900 (2%) were called active. Rule as the data show it: active = inhibition above about 30%; inactive = below that, where a call was filed. Only a part is listed here, and it is no random draw. Entries without a call were filed so in the source.

Biological target: D(2) dopamine receptor (Homo sapiens) (UniProt P14416)
Assay: HTS Assay for Allosteric Antagonists of the Human D2 Dopamine Receptor: Primary Screen for Antagonists; also: 0% is about no effect
Details: HEK293 TREx D2 cells, calcium flux, dopamine EC80; at 10 µM; stronger effect = higher value
Procedure, shortened: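 Antagonism is scored as inhibition of an EC80 dopamine-evoked calcium signal in a force-coupled, tetracycline-inducible HEK293 T-REx D2 line, with compound present 180 s before agonist.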

Chain of UniProt P14416 (P14416 whole entry, looked up): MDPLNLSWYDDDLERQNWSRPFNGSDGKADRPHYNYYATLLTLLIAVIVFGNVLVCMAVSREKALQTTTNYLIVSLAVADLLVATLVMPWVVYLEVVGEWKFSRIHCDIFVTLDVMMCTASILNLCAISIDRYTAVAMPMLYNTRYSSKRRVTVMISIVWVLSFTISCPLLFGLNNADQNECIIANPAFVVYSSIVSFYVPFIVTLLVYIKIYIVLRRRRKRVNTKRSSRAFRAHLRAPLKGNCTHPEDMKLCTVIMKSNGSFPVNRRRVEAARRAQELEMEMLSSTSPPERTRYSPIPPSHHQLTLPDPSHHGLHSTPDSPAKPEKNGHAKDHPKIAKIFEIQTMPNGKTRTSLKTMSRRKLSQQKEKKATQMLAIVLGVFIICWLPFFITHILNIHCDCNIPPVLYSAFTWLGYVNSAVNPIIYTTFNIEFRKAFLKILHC

For `C=CCc1ccccc1OCCNCCCOC`, the inhibition was active: 69.1%.
`CCOC(=O)CC1=C(C#N)C(c2cccnc2)C(C(=O)OCC)=C(N)O1` (stereo not given) was tested, and the inhibition was active: 37.7%.
With `O=c1oc(-c2ccccc2Cl)nc2ccsc12` the inhibition was active: 30.5%.
In the case of `Cc1ccc(NC(=O)c2nc[nH]c2C(=O)N2CCc3ccccc3C2)cc1`, the inhibition is reported as active: 63.4%.
`Cc1c(C(=O)N2CCCCC2)c(S(=O)(=O)NCc2ccc(Cl)cc2)c(C)n1C` was tested, and the inhibition was active: 48.3%.
For `Cc1cc2c([nH]c3ccccc32)c2c1OC(C)(C)C=C2`, the inhibition was active: 42.6%.
`CCc1nnc(NC(=O)COc2ccc(N(C)S(=O)(=O)c3ccc(C)cc3)cc2)s1` was tested, and the inhibition was active: 39.9%.
With `CN(C)CC/C=C1\c2cc(F)ccc2CSc2ccccc21` the inhibition was active: 36.8%.
With `O=C(CNCc1ccco1)Nc1ccccc1-n1cccc1` the inhibition was active: 38%.
In the case of `COc1ccc(C2N(C(=O)C(F)(F)F)C(C)CN2S(=O)(=O)c2ccc(C)cc2)cc1` (stereo not given), the inhibition is reported as active: 34.8%.
With `CCOCCCNC(=O)c1cc2c(=O)[nH]c3ccccc3c2s1` the inhibition was active: 58.4%.
In the case of `CCC(C)NCCOc1cc(C)cc(C)c1C` (stereo not given), the inhibition is reported as active: 50.9%.
With `O=C(NC1CCCC1)C(c1ccc(Cl)cc1)N1CCOCC1` (stereo not given) the inhibition was active: 32%.
With `Cc1ccc2[nH]cc(C(=O)CN3CCN(c4ccccn4)CC3)c2c1` the inhibition was active: 34.1%.
In the case of `CCOC(=O)c1c(C)oc2c1c(C(c1ccccc1)N1CCOCC1)c(O)c1ccccc12` (stereo not given), the inhibition is reported as active: 57.4%.
In the case of `CCCCn1c(N)c(N(CCC(C)C)C(=O)c2cccc(S(=O)(=O)N3CCN(C)CC3)c2)c(=O)[nH]c1=O`, the inhibition is reported as active: 34%.

Going from `CC(C)(Oc1ccc(Br)cc1)C(=O)Nc1cc(-c2nc3ccccc3[nH]2)ccc1Cl` to `CCOC(=O)c1ccc(CN(Cc2ccc(Br)cc2)S(=O)(=O)c2cccc(Cl)c2C)cc1`, the inhibition rises from -7.32% to 5.14%.

First: O=C(CN1N=C(c2ccc(Cl)cc2)CCC1=O)NCCc1ccccc1
Second: CCOc1ccc(-n2c(=O)c3c(C)c(C)sc3n(CC(=O)NCCc3ccccc3)c2=O)cc1
The inhibition of the first is lower: 8.43% for the first, 13.2% for the second.

Compared with `CCOC(=O)CC(NC(=O)Cn1nnc(-c2ccccc2F)n1)c1ccccc1Cl` (stereo not given), `O=C(Cn1c(=O)nc(-c2ccccc2)c2ccccc21)NCc1ccccc1Cl` is higher in inhibition: -15.8% for the first, 14.6% for the second.

Going from `CCc1ccc(C2C(C(=O)Nc3ccccc3C)=C(C)Nc3nc(SCc4cccc(OC)c4)nn32)cc1` (stereo not given) to `COc1ccc(-c2nc3n(n2)C(c2ccc(OC)c(OC)c2)C(C(=O)Nc2cccnc2)=C(C)N3)cc1` (stereo not given), the inhibition rises from -4.64% to 7.15%.

Going from `CC(=O)c1ccc(NC(=O)CSc2nc(=O)n(Cc3ccncc3)c3c2CCC3)cc1` to `CC(C)c1ccc(S(=O)(=O)c2cnc(SCC(=O)Nc3ccc4c(c3)OCCO4)[nH]c2=O)cc1`, the inhibition rises from -17.7% to -16.2%.

First: CCS(=O)(=O)c1ncc(N(Cc2ccco2)Cc2ccccc2F)c(C(=O)Nc2cccc(Cl)c2)n1
Second: COc1cccc(NC(=O)C(Cc2ccccc2)NS(=O)(=O)c2ccc3c(c2)c(=O)n(C)c(=O)n3C)c1 (stereo not given)
The inhibition of the first is higher: 11.7% for the first, -27.1% for the second.

First: Cc1ccc(N2CCN(C(=O)c3cn(C)c4ccc(S(=O)(=O)N(C)C)cc4c3=O)CC2C)cc1 (stereo not given)
Second: Cc1ccc(-c2nn3c(=O)cc(CN4CCN(S(=O)(=O)c5ccc(Cl)cc5)CC4)nc3s2)cc1
The inhibition of the first is higher: 19.9% for the first, 10.9% for the second.

Going from `O=c1cc(-c2ccc(F)cc2)nc(SCc2nc(-c3ccc(Cl)cc3)no2)[nH]1` to `CCc1ccc(NC(=O)COCc2cc(-c3ccc(F)cc3)on2)cc1`, the inhibition falls from 7.61% to -16.6%.

First: CCOC(=O)c1c(C)[nH]c(C)c1S(=O)(=O)NCC(=O)NCc1cccc(C)c1
Second: Cc1cccc(CNC(=O)Cn2ccc3cc(S(=O)(=O)N4CCCCCC4)ccc32)c1
The inhibition of the first is lower: -10.2% for the first, 1.9% for the second.

Going from `COc1cc(C(=O)NCC(c2ccc(Cl)cc2)N2CCOCC2)cc(OC)c1OC` (stereo not given) to `COc1cc(NC(=O)CCn2nc(C)c(S(=O)(=O)N3CCCCC3)c2C)cc(OC)c1OC`, the inhibition falls from -1.6% to -5.11%.

First: COCCCNC(=O)c1ccc(Cn2c(=O)c3ccccc3n(Cc3c(C)cc(C)cc3C)c2=O)cc1
Second: COc1ccc(CCNC(=O)c2ccc(Cn3c(=O)c4ccccc4n(CC(=O)C(C)(C)C)c3=O)cc2)cc1OC
The inhibition of the first is lower: 3.66% for the first, 7.25% for the second.

Going from `CCCCN(CC)C(=O)C1CCCN(c2ncnc3onc(C)c23)C1` (stereo not given) to `CCN(CC)C(=O)C1CCN(S(=O)(=O)c2c(C)noc2/C=C/c2cccc(OC)c2)CC1`, the inhibition falls from 11.1% to 4.85%.

Going from `CCN1CCN(C(c2ccc(SC)cc2)c2c(O)cc(C)n(CCOC)c2=O)CC1` (stereo not given) to `Cn1c(=O)cc(OCC(=O)N2CCN(c3ccc(F)cc3)CC2)c2ccccc21`, the inhibition rises from -0.715% to 9.39%.

Compared with `Cc1ccccc1C(=O)N(Cc1sccc1C)C1CCS(=O)(=O)C1` (stereo not given), `COc1ccccc1N1C(=O)N(CC(=O)C(C)(C)C)c2ccccc2S1(=O)=O` is lower in inhibition: 0.302% for the first, 0.186% for the second.

Going from `COc1ccc(Cl)cc1NC(=O)c1c(NCc2cccnc2)sc2c1CCC(C)C2` (stereo not given) to `Cc1ccc(Cn2cnc3nc4c(cc3c2=O)CC(C)CC4)cc1` (stereo not given), the inhibition falls from 9.93% to -18.6%.

Going from `CC1CCCCN1CCCNC(=O)CN1C(=O)c2cccnc2Oc2ccccc21` (stereo not given) to `CCCNC(=O)CN1C(=O)CSc2ccc(S(=O)(=O)N3CCC(C)CC3)cc21`, the inhibition falls from 12.6% to 0.956%.

Compared with `COc1ccccc1NC(=O)C1=C(C)Nc2c(C(=O)Nc3cccc(C)c3)cnn2C1c1ccccc1Cl` (stereo not given), `COc1cc2nc(SCC(=O)Nc3cccc(C)c3)n3nc(CCn4c(C)nc5ccccc54)nc3c2cc1OC` is lower in inhibition: 23.7% for the first, -1.1% for the second.

First: Cc1ccc(Cl)cc1NC(=O)CCCn1c(=O)c2cccn2c2cccnc21
Second: CCn1c(=O)cc(OCC(=O)N(C)c2cc(Cl)ccc2C)c2ccccc21
The inhibition of the first is lower: -0.541% for the first, 10.6% for the second.

Compared with `CCCc1cc(=O)oc2cc(C)c3c(-c4ccccc4)coc3c12`, `Cc1ccccc1-c1noc(-c2ccc(NCc3ccco3)c([N+](=O)[O-])c2)n1` is higher in inhibition: -6.9% for the first, 0.0874% for the second.

Going from `O=C(CN1C(=O)CSc2ccc(S(=O)(=O)N3CCCC3)cc21)Nc1cccc(Cl)c1` to `O=C(O)c1ccc(NC(=O)c2cc(S(=O)(=O)N3CCCCC3)c(Cl)cc2Cl)cc1`, the inhibition rises from -28% to 7.17%.

Compared with `CCOc1ccccc1NC(=O)CSc1nccn1-c1cccc(C)c1`, `Cc1cc(C)cc(NC(=O)c2ncn(-c3ccccc3)n2)c1` is lower in inhibition: 21.4% for the first, -9.22% for the second.

Compared with `COc1ccc2c(Sc3ccc(C)cc3)c(C(=O)NC(C)C)[nH]c2c1`, `Cc1ccc(Nc2c(C(C)C)c(C)c(C#N)c3nc4ccccc4n23)cc1` is higher in inhibition: -24.7% for the first, -14.1% for the second.

Going from `Cc1ccc(S(=O)(=O)C(CNC(=O)C(=O)NCCc2ccccc2)c2cccs2)cc1` (stereo not given) to `CC(C)c1ccc(NC(=O)C(NS(=O)(=O)c2ccc3c(c2)CCC(=O)N3)c2ccccc2)cc1` (stereo not given), the inhibition falls from 27.6% to 8.19%.

Going from `O=c1oc2ccccc2c(N2CCN(c3ccccc3F)CC2)c1CN1CCCC1` to `O=S(=O)(c1ccccc1)c1nc(-c2ccccc2)oc1N1CCN(c2cccc(Cl)c2)CC1`, the inhibition rises from -2.45% to 4.7%.

Compared with `CCOc1ccc(C2CC(=O)c3c([nH]c(C(=O)OCC4CCCCC4)c3C)C2)cc1` (stereo not given), `CCOc1ccc(NC(=O)c2cc(S(=O)(=O)NC3CCCCCC3)ccc2F)cc1` is lower in inhibition: 14.2% for the first, -11.4% for the second.

Compared with `COCCCNC(=O)c1nn(-c2ccc(C)cc2)nc1CO`, `CCOc1ccc(CCNC(=O)c2nn(C)c3c2CSc2ccccc2-3)cc1` is lower in inhibition: 13.3% for the first, 0.0981% for the second.

Compared with `CCC(C)NC(=O)CCCc1nnc2n(CC(C)C)c(=O)c3sccc3n12` (stereo not given), `CCOCN(C(=O)Cn1c(CC(C)C)nc2ccccc21)c1c(C)cccc1CC` is lower in inhibition: 5.32% for the first, -4.57% for the second.

Compared with `COc1ccc2c(c1)CCc1c(C(=O)Nc3c(C)nn(Cc4ccccc4)c3C)noc1-2`, `COc1cccc(NC(=O)C2CCN(c3cc(C)nc4c(-c5ccc(Cl)cc5)c(C)nn34)CC2)c1` is lower in inhibition: 12.8% for the first, 2.13% for the second.

First: CCOc1ccccc1CNC(=O)CCCn1ccc2cc(S(=O)(=O)N3CCCC3)ccc21
Second: Cc1ccc(OCC(=O)Nc2nnc(S(=O)(=O)N3CCCCCC3)s2)cc1
The inhibition of the first is lower: -9.64% for the first, 22.4% for the second.

First: COc1cccc(C(=O)Nc2nnc(S(=O)(=O)N3CCCC3)s2)c1
Second: COc1ccc(CNC(=O)c2ccc3c(c2)CCN3S(=O)(=O)c2ccc(Cl)cc2)cc1
The inhibition of the first is lower: -20% for the first, -13.9% for the second.

Going from `CSc1ccc(-c2nc3cccc(C)n3c2Nc2ccc(Cl)cc2)cc1` to `Oc1ccc(NCc2ccccc2OCc2ccc(Cl)cc2)cc1`, the inhibition falls from -1.89% to -4.14%.

Going from `O=C1CN(C(=O)COc2ccc(Cl)cc2Cl)C(c2ccccc2)c2cc(F)ccc2N1` (stereo not given) to `O=C1c2[nH]nc(-c3ccccc3O)c2C(c2ccc(Cl)cc2)N1CCc1ccccc1` (stereo not given), the inhibition rises from -10.2% to 2.67%.

First: CN(C)CCNC(=O)c1ccc(-c2nn(C)c(=O)c3ccccc23)cc1
Second: CCc1ccccc1-n1c2c(cc(-c3nc(-c4ccc(Cl)cc4)cs3)c1=O)C(=O)CC(C)(C)C2
The inhibition of the first is lower: -11.1% for the first, 5.22% for the second.

`CC(C)(C)C1CCc2nc(NC(=O)Cc3ccccc3)sc2C1` (stereo not given) and `Cc1c(Cl)cccc1NC(=O)C(C)N(c1ccccc1)S(C)(=O)=O` (stereo not given) are the same in inhibition: -3.49% for the first, -3.49% for the second.

First: COC(=O)c1ccccc1NC(=O)N1CCC(N2CCN(Cc3ccc(F)cc3)C(=O)C2=O)CC1
Second: CC(=O)N1c2ccc(S(=O)(=O)NCC3CCC(C(=O)Nc4ccc(F)cc4)CC3)cc2CC1C (stereo not given)
The inhibition of the first is higher: 2.99% for the first, -0.88% for the second.

Going from `COc1cc(Nc2nc3c(S(=O)(=O)c4ccc(C)c(C)c4)nnn3c3ccsc23)cc(OC)c1` to `CCOc1ccc(OCC)c(NS(=O)(=O)c2ccc3[nH]c(=O)ccc3c2)c1`, the inhibition falls from 0.0229% to -0.171%.

First: O=C(NCc1ccc(F)cc1)C1(c2cccs2)CCOCC1
Second: O=C(COc1ccc(F)cc1)NC1CC(=O)N(c2ccc3c(c2)OCCO3)C1 (stereo not given)
The inhibition of the first is lower: -3.14% for the first, 27% for the second.

First: CCOC(=O)c1c(NC(=O)C2c3ccccc3Oc3ccccc32)sc(C)c1CC
Second: CC(NC(=O)C1=Cc2ccccc2OC1)c1ccccc1 (stereo not given)
The inhibition of the first is lower: -8.17% for the first, 14% for the second.

First: CCc1ccc(NC(=O)N(Cc2cn(CC)c3ccccc23)C2CCCCC2)cc1
Second: O=C(CSCc1cnn(-c2ccccc2)c1-n1cccc1)NCc1ccccc1Br
The inhibition of the first is lower: -18.7% for the first, 10% for the second.

For `CCOc1ccccc1Nc1ncnc2c1c(-c1ccccc1)cn2-c1ccc(OC)cc1`, the inhibition was -24.2%.
